Laboratory results from the supplement of paper PMC12217912.
Some of the results follow. The full chains were built here from the parent and the listed change. Inactive controls read about 0.05.

B1: TEV protease; numbered along this chain (parent)
chain: MGESLFKGPRDYNPISSSICHLTNESDGHTTSLYGIGFGPFIITNKHLFRRNNGTLVVQSLHGVFKVKDTTTLQQHLVDGRDMIIIRMPKDFPPFPQKLKFREPQREERICLVTTNFQTKSMSSMVSDTSCTFPSGDGIFWKHWIQTKDGQCGSPLVSTRDGFIVGIHSASNFTNTNNYFTSVPKNFMELLTNQEAQQWVSGWRLNADSVLWGGHKVFMVKPEEPFQPVKEATQL

Variants of: B1
Experiment: raw area under fraction-flipped curve 0-4 h after induction (AUC4h, not background-subtracted), DNA-recorder readout of cleavage of the substrate (dimensionless); higher = more cleavage of the substrate by the protease variant
Details: temperature: 34 °C; time window: 0-4 h after rhamnose induction
Description: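 In vivo DNA recorder in E. coli TOP10(DE3) ΔrhaA at 34 °C. Each TEVp single-site mutant (parent TEVp 0) is paired with a single-site variant of the 7-mer TEVs (canonical ENLYFQ|S). The substrate sits between flexible linkers in a Bxb1-sfGFP-TEVs-SsrA fusion, so cleavage stabilises Bxb1 and speeds flipping of a recombination array, read by NGS. The value is the raw area under the fraction-flipped curve over 0-4 h after rhamnose induction (AUC4h), with ≥20 reads per time point. It is not background-subtracted; inactive controls average about 0.047.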
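Further: Bxb1 expression induced with 0.2% (w/v) L-rhamnose at OD600 near 0.5, cultures sampled hourly, flipped fraction per protease–substrate barcode pair counted by paired-end Illumina sequencing.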

## MGESLFKGPRDYNPISSSICHLTNESDGHTTSLYGIGFGPFIITNKHLFRRNNGTLVVQSLHGVFKVKDTTTLQQHLVDGRDMIRIRMPKDFPPFPQKLKFREPQREERICLVTTNFQTKSMSSMVSDTSCTFPSGDGIFWKHWIQTKDGQCGSPLVSTRDGFIVGIHSASNFTNTNNYFTSVPKNFMELLTNQEAQQWVSGWRLNADSVLWGGHKVFMVKPEEPFQPVKEATQL [I85R]
  area with substrate EALYFQS: 0.0693
  area with substrate ECLYFQS: 0.0544
  area with substrate EDLYFQS: 0.0384
  area with substrate EFLYFQS: 0.0717
  area with substrate EHLYFQS: 0.0633
  area with substrate EILYFQS: 0.0581
  area with substrate EKLYFQS: 0.0455
  area with substrate ELLYFQS: 0.0417
  area with substrate EPLYFQS: 0.051
  area with substrate EQLYFQS: 0.0572
  area with substrate ERLYFQS: 0.0575
  area with substrate ESLYFQS: 0.0651
  area with substrate EWLYFQS: 0.0601
  area with substrate EYLYFQS: 0.056

## MGESLFKGPRDYNPISSSICHLTNESDGHTTSLYGIGFGPFIITNKHLFRRNNGTLVVQSLHGVFKVKDTTTLQQHLVDGRDMIIIRMPKDFPPFPQKLKFREPQREERICLVTTNFQTKSMSSMVSDTSCTFPSGDGIGWKHWIQTKDGQCGSPLVSTRDGFIVGIHSASNFTNTNNYFTSVPKNFMELLTNQEAQQWVSGWRLNADSVLWGGHKVFMVKPEEPFQPVKEATQL [F140G]
  area with substrate EALYFQS: 0.0499
  area with substrate ECLYFQS: 0.0645
  area with substrate EDLYFQS: 0.0534
  area with substrate EELYFQS: 0.0528
  area with substrate EFLYFQS: 0.045
  area with substrate EGLYFQS: 0.0639
  area with substrate EILYFQS: 0.0572
  area with substrate EKLYFQS: 0.0058
  area with substrate ELLYFQS: 0.054
  area with substrate EMLYFQS: 0.0521
  area with substrate EPLYFQS: 0.074
  area with substrate EQLYFQS: 0.061
  area with substrate ERLYFQS: 0.0741
  area with substrate ESLYFQS: 0.0596
  area with substrate ETLYFQS: 0.0533
  area with substrate EVLYFQS: 0.0621
  area with substrate EWLYFQS: 0.0507

## MGESLFKGPRDYNPISSSICHLTNESDGHTTSLYGIGFGPFIITNKHLFRRNNGTLVVQSLHGVFKVKDTTTLQQHLVDGRDMIIIRMPKDFPPFPQKLKFREPQREERICLVTTNFQTKSMSVMVSDTSCTFPSGDGIFWKHWIQTKDGQCGSPLVSTRDGFIVGIHSASNFTNTNNYFTSVPKNFMELLTNQEAQQWVSGWRLNADSVLWGGHKVFMVKPEEPFQPVKEATQL [S124V]
  area with substrate EALYFQS: 0.112
  area with substrate ECLYFQS: 0.0622
  area with substrate EDLYFQS: 0.0981
  area with substrate EELYFQS: 0.132
  area with substrate EGLYFQS: 0.0925
  area with substrate EHLYFQS: 0.0966
  area with substrate EILYFQS: 0.0557
  area with substrate EKLYFQS: 0.0943
  area with substrate ELLYFQS: 0.0892
  area with substrate EMLYFQS: 0.11
  area with substrate EPLYFQS: 0.111
  area with substrate EQLYFQS: 0.0968
  area with substrate ESLYFQS: 0.0967
  area with substrate ETLYFQS: 0.105
  area with substrate EVLYFQS: 0.0763
  area with substrate EWLYFQS: 0.122
  area with substrate EYLYFQS: 0.0955

## MGESLFKGPRDYNPISSSICHLLNESDGHTTSLYGIGFGPFIITNKHLFRRNNGTLVVQSLHGVFKVKDTTTLQQHLVDGRDMIIIRMPKDFPPFPQKLKFREPQREERICLVTTNFQTKSMSSMVSDTSCTFPSGDGIFWKHWIQTKDGQCGSPLVSTRDGFIVGIHSASNFTNTNNYFTSVPKNFMELLTNQEAQQWVSGWRLNADSVLWGGHKVFMVKPEEPFQPVKEATQL [T23L]
  area with substrate EALYFQS: 0.12
  area with substrate ECLYFQS: 0.116
  area with substrate EDLYFQS: 0.125
  area with substrate EFLYFQS: 0.097
  area with substrate EGLYFQS: 0.0875
  area with substrate EILYFQS: 0.0911
  area with substrate EKLYFQS: 0.107
  area with substrate ELLYFQS: 0.0946
  area with substrate EMLYFQS: 0.114
  area with substrate EPLYFQS: 0.111
  area with substrate EQLYFQS: 0.121
  area with substrate ESLYFQS: 0.0908
  area with substrate EVLYFQS: 0.0904
  area with substrate EYLYFQS: 0.105

## MGESLFKGPRDYNPISSSICHLTNWSDGHTTSLYGIGFGPFIITNKHLFRRNNGTLVVQSLHGVFKVKDTTTLQQHLVDGRDMIIIRMPKDFPPFPQKLKFREPQREERICLVTTNFQTKSMSSMVSDTSCTFPSGDGIFWKHWIQTKDGQCGSPLVSTRDGFIVGIHSASNFTNTNNYFTSVPKNFMELLTNQEAQQWVSGWRLNADSVLWGGHKVFMVKPEEPFQPVKEATQL [E25W]
  area with substrate EALYFQS: 0.129
  area with substrate ECLYFQS: 0.115
  area with substrate EDLYFQS: 0.126
  area with substrate EGLYFQS: 0.0852
  area with substrate EHLYFQS: 0.0753
  area with substrate EILYFQS: 0.0884
  area with substrate EKLYFQS: 0.107
  area with substrate ELLYFQS: 0.0804
  area with substrate EMLYFQS: 0.0989
  area with substrate EQLYFQS: 0.116
  area with substrate ESLYFQS: 0.113
  area with substrate ETLYFQS: 0.106
  area with substrate EVLYFQS: 0.0529
  area with substrate EWLYFQS: 0.0864
  area with substrate EYLYFQS: 0.101

## MGESLFKGPRDYNPISSSICHLTNESDGHTTSLYGIGFGPFIITNKHLFRRNNGSLVVQSLHGVFKVKDTTTLQQHLVDGRDMIIIRMPKDFPPFPQKLKFREPQREERICLVTTNFQTKSMSSMVSDTSCTFPSGDGIFWKHWIQTKDGQCGSPLVSTRDGFIVGIHSASNFTNTNNYFTSVPKNFMELLTNQEAQQWVSGWRLNADSVLWGGHKVFMVKPEEPFQPVKEATQL [T55S]
  area with substrate EALYFQS: 0.122
  area with substrate ECLYFQS: 0.113
  area with substrate EDLYFQS: 0.129
  area with substrate EELYFQS: 0.13
  area with substrate EGLYFQS: 0.0834
  area with substrate EHLYFQS: 0.109
  area with substrate EILYFQS: 0.1
  area with substrate EKLYFQS: 0.0757
  area with substrate EMLYFQS: 0.1
  area with substrate EQLYFQS: 0.102
  area with substrate ERLYFQS: 0.11
  area with substrate ESLYFQS: 0.107
  area with substrate ETLYFQS: 0.117
  area with substrate EVLYFQS: 0.109
  area with substrate EWLYFQS: 0.108

## MGESLFKGPRDYNPISSSICHLTNESDGHTTSLYGIGFGPFIITNKHLFRRNNGTLVVQSLHGVFKVKDTTTLQQHLVDGRDMIIIRMPKDFPPFPQKLKFREPQREERICLVTTNFQTKSMSSMVSDTSCTFPSGDGIFWKHWIQTKDGQCGSPQVSTRDGFIVGIHSASNFTNTNNYFTSVPKNFMELLTNQEAQQWVSGWRLNADSVLWGGHKVFMVKPEEPFQPVKEATQL [L156Q]
  area with substrate EALYFQS: 0.0608
  area with substrate ECLYFQS: 0.057
  area with substrate EDLYFQS: 0.0883
  area with substrate EGLYFQS: 0.0545
  area with substrate EHLYFQS: 0.0558
  area with substrate EILYFQS: 0.0535
  area with substrate EKLYFQS: 0.0522
  area with substrate ELLYFQS: 0.0566
  area with substrate EMLYFQS: 0.0706
  area with substrate EPLYFQS: 0.0616
  area with substrate ERLYFQS: 0.0517
  area with substrate ESLYFQS: 0.047
  area with substrate EVLYFQS: 0.0604
  area with substrate EWLYFQS: 0.0534
  area with substrate EYLYFQS: 0.0498

## MGESLFKGPRDYNPISSSICHLTNESDGHTTSLYGIGFGPFILTNKHLFRRNNGTLVVQSLHGVFKVKDTTTLQQHLVDGRDMIIIRMPKDFPPFPQKLKFREPQREERICLVTTNFQTKSMSSMVSDTSCTFPSGDGIFWKHWIQTKDGQCGSPLVSTRDGFIVGIHSASNFTNTNNYFTSVPKNFMELLTNQEAQQWVSGWRLNADSVLWGGHKVFMVKPEEPFQPVKEATQL [I43L]
  area with substrate EALYFQS: 0.111
  area with substrate ECLYFQS: 0.105
  area with substrate EDLYFQS: 0.0984
  area with substrate EELYFQS: 0.117
  area with substrate EGLYFQS: 0.0894
  area with substrate EILYFQS: 0.0903
  area with substrate EKLYFQS: 0.122
  area with substrate ELLYFQS: 0.0815
  area with substrate EMLYFQS: 0.103
  area with substrate EQLYFQS: 0.121
  area with substrate ERLYFQS: 0.0969
  area with substrate ESLYFQS: 0.0761
  area with substrate ETLYFQS: 0.101
  area with substrate EVLYFQS: 0.101
  area with substrate EWLYFQS: 0.0919
  area with substrate EYLYFQS: 0.109
